Experimental data taken from the RNAGym collection of RNA variant scans (doi:10.7554/elife.90254).
The source gives no read counts; variants with many changes may rest on few reads.

B1: LINE1-mini (parent)
chain: GGCAGAGCUCAACACAGCGUGGCAAAGUGGCUGUGGCUAGACUGCC

Variants of: B1
Experiment: self-cleavage, relative activity (ratio to wild type); higher = more cleavage; in vitro, sequencing; the parent is a self-cleaving ribozyme
Work on GGCAGAGCCCAACACAGCGUAGCAAAGAGGAUGUGGCUAGACUGCC yielded a self-cleavage of 0. GGCAGAGCUCAACUCAGCGAGGAAAAGUGGCUGUGGCAAGACUCCC gave a self-cleavage of 0.11. For GGCAGAGCUCAACACAGCGUGGCAAAGUAGCUGUCGCUAGAGUGCC, the self-cleavage was 0.05. GGCAGAGCUCAACACAGCGUGGCUAAGUGUCUGUGGCUAGACUACC showed a self-cleavage of 0.08. Work on GGCGGAGCUCAACACAGUGUGGCAAAGUGGCUGUUGCUAGACUGCC yielded a self-cleavage of 0.08. In the case of GGCAGAGCUCAACACACCGUAGCAAAAUGGCUGUGGCUAGACUGCC, the self-cleavage is reported as 1.09. For UGCAGAGCUCAACACAGCGUGGCAAAGUGACUAUGGCUAGACUUCC, the self-cleavage was 0.08. Variant CGCAGAGCUCAACACAGCCUGGCAAACUGGCUACGGCUAGACUGCC has a self-cleavage of 0.01. For GGCAGAGAUAAACACAGCGUGGCAAAGUGGCUGUGGCUACACUGCC, the self-cleavage was 0. In the case of GGCAGAGCUCAACACAGCGUUGCAAAGUGGCUGUAGCUCGACUACC, the self-cleavage is reported as 0.08. For GGCAGAGCUCAACACAGCCUGGCAAAGUGGCUGAGGGUAGAAUGCC, the self-cleavage was 0.04. Work on GGCAGAGCUAGACACAGCGUUGCAAAGUGGCGGUGGCUAGACUGCU yielded a self-cleavage of 0.01. With GGCAGAGCUCAACACUGUGUGGCGAAGUGACUGUGGCUACACUGCC the self-cleavage was 0.04. GGCAGAGCUCAACAGAGCGUGGCAAAGCGGCUGUUGCUAGACUGCC gave a self-cleavage of 0.02. GGCAGAGCUCCACACAGCGGGGCAAAGUGGCUCUGGCUCGACUGCC gave a self-cleavage of 0. With GGCAGAGCUCAACACAGCGUGGAAAACUGCCUGUGGCUAGACUGCC the self-cleavage was 1.78. For CGCAGAGCUCAACACACCGUGGCAAAGUGCCUGUGGCGAGACUGCC, the self-cleavage was 0.01. For GGCAGAGCUCAAAACACCGUGGCAAAGUGGCUCUGGCUAGACUGCC, the self-cleavage was 0.07. GGCAGAGCUCAACCCAGCGUGGCAAAGCGGCUGUGGCUAGACUACC gave a self-cleavage of 0.13. GGUAAAGCUCAACACAGGGUGGCAAAGUGGCUGUGGCUAGACUGCC gave a self-cleavage of 0.05. For GGCAGAGCUCAACAAAGCGUGGCAAAGUCGCUGUGGCACGACUGCA, the self-cleavage was 0.69. GGCCGAGCUCAAUACACCAUGGCAAUGUGGCUGUGGCUAGACUGCC gave a self-cleavage of 0.09. CGCAGAGCCCAACACCGCGUGGCAAAGUGGCUGUGGCUAAAAUGCC gave a self-cleavage of 0. GGGAGAGCUCAAUACGGCGUUGCAAAGUGGCUGUGUCUAGACUGCC gave a self-cleavage of 0.07. In the case of GGCAGUGCACCACACAGCGUGGCAAAGUGUCUGUGGCUAGACUGCC, the self-cleavage is reported as 0.04. Work on GGCAGAGCUCAACACAGCGUAGCAAAGUGGCUGCUGCUAUACUGCC yielded a self-cleavage of 0.02. GGCCGCGGUCAACACAGCGUGGCAACGUGGCUGUGGCUAGACUGCC gave a self-cleavage of 0.03. Work on GGCAGAGCUCAACACAUCGUGGCAAAUUGGCUUUGGCUAGACUGCC yielded a self-cleavage of 0.02. For GGUAGAGCUCAGCACAGCGUGGCAAAGUGGCUGUGGCUAGACUUCU, the self-cleavage was 0.01. For GGCAGCGCUCAACACAGCGGGGUAAAGUGCCUGUGUCUAGACUGCC, the self-cleavage was 0.05. For GGCAGAGCUAAACACAGCGUCGCAAAGGGGCUGUGGCUUGACUGCC, the self-cleavage was 0.07. In the case of GGCAGAGCUCAACACAGCGUUGCAAAGUGGCUGUCGCUAGACUGCU, the self-cleavage is reported as 0.06. For GGCAGUGCCCAACACAGCGUGGCAAAGUGGCUGUGGCCAGACUGUC, the self-cleavage was 0.04. With UGCAGAGCUCACCACAGCGUGGCAAAGUGGCUGUGGCCAGACUGCC the self-cleavage was 0.02. GGCACAGCUCAACACAGCGUGGCAAAGUGGCUGUGUCUAGAUUGCC gave a self-cleavage of 0.01. In the case of GGCAGAGCUCAAGACAGUGUGGCAAAGUGGCUGUGGCUAGACUGCG, the self-cleavage is reported as 0.22. Work on GUCAGAGCUCAACACAGCAUGGCAAAGCCACUGUGGCUAGACUGCC yielded a self-cleavage of 0.09. Work on GGCAGAGCUCAACUCAGCGUGGCAAAGUGGCUGUGGCUCGACUUCC yielded a self-cleavage of 0.07. In the case of GGCAGAGCUCCCCACAGCGUGGCAAAGUGGCUGUUGCUAUACUGCC, the self-cleavage is reported as 0. In the case of GGCAGAGCUCAACACAGCGUGGCAAUGCGGCUGAGGCUAGACUGCC, the self-cleavage is reported as 0.22. Variant GGCAGAGUUCAAUUCAGCGUGGCAAAGUGGCUGUGGCUAGACUGCC has a self-cleavage of 0.26. With GGCAGAGUUCAACACAGCGUGGUAAAAUGGCUGUGGCUAGACUGCC the self-cleavage was 0.19. Variant GGCUGAGCUCUACACAGCCUGGCAAAAUGGCUGUGGAUAGACUGCC has a self-cleavage of 0.01. With GGCAGAACUCUACACAGAUUGGCAAAGUGGCUGAGGCUAGACUGCC the self-cleavage was 0.02. For GUCAGAGCUCAACAAAUCGUGGCAUACUGGCUGUGGCUAGACUGCC, the self-cleavage was 0.01. With GGCAGAGCUCAACACAACGUGGCAAAGUGGCUUUGGUUAGACUGCC the self-cleavage was 0.04. Variant GUCUGAGCUCAACACACCGAGGCAAAGUGGCUGUGGAUAGACAGCC has a self-cleavage of 0.01. In the case of CGCAUAGCGCAACUCAGCGUGUCAAAGUCGCUGUGGCUAUACUGCC, the self-cleavage is reported as 0.01. In the case of GGCAGAGCUCAACACAGCGUUGCAAAAUGUAUGUGGCUAGACUGCC, the self-cleavage is reported as 0.67. GGCAGAAGUGCACACAGCGUGGCAAAUUGGCUGUGGCUAGACUGCC gave a self-cleavage of 0.02. Variant GGCAAAGCUCAACACAGCGUGGCAAAGUGGGUGUGGCUAGACUGGC has a self-cleavage of 0.04. Work on GGCAGAGCUCAACAGAGCGUGGCAAAGUUGCUGUGGCUGGGCUGCC yielded a self-cleavage of 0.02. For UGCAGAGCUCAACACAGCGUGGCAAAGUUGCUGUAGCUAGACUGCC, the self-cleavage was 0.04. CGCACAGCUCAACACAGCGUGGCAAUGUGGCUGUGGCUAGACUGCC gave a self-cleavage of 0.03. GGCAGAGCUCAACGGAGCGUGGCAAAGUGGCUGUGGCUAGAAUGCC showed a self-cleavage of 0.05. GGCAGAGCUCAACACAGCGUGGCAAACCGGCUGUGGCUAGACUACC gave a self-cleavage of 0.35.
